Laboratory results: patent publication US12433883B2, “Covalent modification and controlled delivery of mu opioid receptor antagonists” (Allegheny Singer Research Institute, priority 2019, dated 2025)

System: opioid-dependent mice
Settings: free naloxone 8 mg/kg, data collected for 6 hours

## C=CCN1CC[C@]23c4c5ccc(O)c4O[C@H]2C(=O)CC[C@@]3(O)[C@H]1C5 [free naloxone, naloxone]
  POW-related behavior: significant POW-related behavior
